Measurements as given in the supplement of paper PMC3334620.
Whole data set: some 33,000 sequences, median “E-score (-0.5 to 0.5)” near -0.035, cut for the highest 2% near 0.35. This is one part of the list.

Target: T1, Pdr3 (UniProt P33200)
T1 sequence: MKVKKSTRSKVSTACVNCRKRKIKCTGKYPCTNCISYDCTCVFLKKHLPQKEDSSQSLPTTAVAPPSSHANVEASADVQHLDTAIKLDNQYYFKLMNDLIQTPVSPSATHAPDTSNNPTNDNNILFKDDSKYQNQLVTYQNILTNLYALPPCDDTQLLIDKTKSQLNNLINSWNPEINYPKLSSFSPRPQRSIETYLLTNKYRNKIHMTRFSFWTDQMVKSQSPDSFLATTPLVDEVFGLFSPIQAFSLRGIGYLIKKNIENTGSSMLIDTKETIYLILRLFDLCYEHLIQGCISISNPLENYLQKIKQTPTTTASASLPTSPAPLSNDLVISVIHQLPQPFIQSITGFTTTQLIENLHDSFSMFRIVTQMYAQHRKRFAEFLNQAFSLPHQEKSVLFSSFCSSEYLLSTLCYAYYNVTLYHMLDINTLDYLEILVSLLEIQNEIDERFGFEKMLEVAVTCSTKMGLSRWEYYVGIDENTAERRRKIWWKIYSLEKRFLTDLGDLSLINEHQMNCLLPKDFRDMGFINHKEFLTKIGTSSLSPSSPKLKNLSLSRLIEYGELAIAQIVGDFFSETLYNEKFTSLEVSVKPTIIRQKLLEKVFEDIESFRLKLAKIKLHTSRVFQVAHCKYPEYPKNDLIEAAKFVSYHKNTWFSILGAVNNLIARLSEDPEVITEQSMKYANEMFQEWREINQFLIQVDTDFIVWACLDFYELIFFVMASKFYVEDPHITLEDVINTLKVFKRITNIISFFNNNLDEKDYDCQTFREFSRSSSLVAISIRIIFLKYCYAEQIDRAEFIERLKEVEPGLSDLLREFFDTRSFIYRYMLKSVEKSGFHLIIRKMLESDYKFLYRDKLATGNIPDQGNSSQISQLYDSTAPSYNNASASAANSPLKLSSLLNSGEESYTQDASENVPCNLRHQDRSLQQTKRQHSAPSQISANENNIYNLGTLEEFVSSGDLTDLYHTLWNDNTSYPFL
Test: PBM E-score (8-mer binding enrichment) (E-score (-0.5 to 0.5)); higher = stronger / more preferred TF binding; most listed sequences are background and not binding sites
Conditions: protein concentration: 200 nM; construct: GST-full length
In short: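 Full-length yeast transcription factors or their DNA-binding domains, GST-tagged and expressed with PURExpress, were applied at about 100-200 nM to universal all-10-mer Agilent arrays. These arrays had been made double-stranded by primer extension on fresh or once-stripped slides. Detection used fluorescent anti-GST, normalisation used masliner, and E-scores for ungapped eight-base words pooled with reverse complements came from the Universal PBM Analysis Suite.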

First: CAAAGATC
Second: ACTCTCTA
The “PBM E-score” value of the first is higher: -0.0762 for the first, -0.31 for the second.

Going from GCCGACGC to CCTAGGCC, the “PBM E-score” value falls from 0.178 to 6e-05.

Going from AGATTCAG to CAAAGGGG, the “PBM E-score” value falls from -0.0749 to -0.1.

Going from AGCCAGCG to CGGAGTGA, the “PBM E-score” value rises from -0.019 to 0.285.

Compared with ACTCTCCT, ACAGCATA is higher in “PBM E-score” value: -0.167 for the first, 0.0179 for the second.

Compared with AGTTTACC, ACCGGCAA is higher in “PBM E-score” value: -0.0725 for the first, 0.185 for the second.

Compared with GACGACAC, CAGATGAA is lower in “PBM E-score” value: -0.042 for the first, -0.128 for the second.

First: AACAGCCG
Second: ATGGTTGC
The “PBM E-score” value of the first is higher: -0.0154 for the first, -0.105 for the second.

Going from ATGACGTA to CAAGAACG, the “PBM E-score” value rises from -0.262 to -0.0114.

First: ATGTTTTC
Second: ATCAAATA
The “PBM E-score” value of the first is higher: 0.0627 for the first, 0.0461 for the second.

Compared with GATGTGCA, GCAGCGAA is lower in “PBM E-score” value: -0.116 for the first, -0.146 for the second.

First: ATTCTAGG
Second: AGGAACAG
The “PBM E-score” value of the first is lower: -0.248 for the first, -0.195 for the second.

First: CTACAGAC
Second: ATCCTAAT
The “PBM E-score” value of the first is lower: -0.198 for the first, -0.00206 for the second.

First: ACCCAGCA
Second: ATCATCTA
The “PBM E-score” value of the first is lower: -0.108 for the first, -0.0371 for the second.

First: CCTTGTTC
Second: CACCCAGA
The “PBM E-score” value of the first is higher: -0.114 for the first, -0.215 for the second.

First: CATTGGCG
Second: ATAGTGAC
The “PBM E-score” value of the first is lower: -0.189 for the first, -0.0769 for the second.

Going from CGCCGCGC to TATCGCAA, the “PBM E-score” value falls from 0.309 to -0.0243.

First: CAGAAGCC
Second: GAGTGAAC
The “PBM E-score” value of the first is lower: -0.0706 for the first, 0.0586 for the second.

Going from GGAGACAC to CACTATAC, the “PBM E-score” value falls from 0.0538 to -0.0694.

Compared with AATGTGTA, AGGGACGG is higher in “PBM E-score” value: -0.212 for the first, 0.0347 for the second.

First: ATACCTGC
Second: ATCGTAAT
The “PBM E-score” value of the first is lower: -0.205 for the first, 0.0156 for the second.

Going from AGCTAATG to CCATTCAA, the “PBM E-score” value rises from -0.241 to 0.0418.

Going from CGAGACAA to ACTTAACA, the “PBM E-score” value falls from -0.0858 to -0.208.

Compared with AGCTCACG, ACAAAGCA is higher in “PBM E-score” value: -0.101 for the first, 0.0388 for the second.

First: CGCTACAC
Second: AGCAGTAA
The “PBM E-score” value of the first is higher: -0.0343 for the first, -0.071 for the second.

Going from AGTCAAAT to ATGATAGG, the “PBM E-score” value rises from -0.196 to -0.0232.

Going from AGGGTCCA to GCATACGC, the “PBM E-score” value falls from -0.0256 to -0.0534.

Going from CCTCGCAA to GCGCGCCA, the “PBM E-score” value rises from -0.16 to 0.253.

Compared with ACATCTAA, AACCCTCG is higher in “PBM E-score” value: -0.142 for the first, 0.0474 for the second.

First: GTGGTTTA
Second: CAGAGCGA
The “PBM E-score” value of the first is lower: -0.0524 for the first, 0.0283 for the second.

First: TTATTCAA
Second: AGGGGCGA
The “PBM E-score” value of the first is lower: -0.255 for the first, -0.0104 for the second.

First: CGACCCAA
Second: GAATTGTC
The “PBM E-score” value of the first is higher: 0.0335 for the first, 0.00563 for the second.

Going from ATCTGAGG to CTCCCGCC, the “PBM E-score” value rises from -0.066 to 0.118.

Compared with AGCAGAGG, ACGTTCTC is higher in “PBM E-score” value: -0.26 for the first, -0.00453 for the second.

Compared with ATACCCGA, AGAGTAGG is lower in “PBM E-score” value: 0.175 for the first, -0.0905 for the second.

First: ACTCTTGC
Second: CGCTTCAC
The “PBM E-score” value of the first is higher: -0.0726 for the first, -0.103 for the second.

First: GGGGAACA
Second: CACTTGCA
The “PBM E-score” value of the first is higher: -0.00834 for the first, -0.134 for the second.

Compared with CAAGGCGA, GGTGAGAA is higher in “PBM E-score” value: -0.174 for the first, 0.0559 for the second.

Going from ACTCGATC to ACTGTGAA, the “PBM E-score” value falls from 0.0638 to -0.099.

Compared with ATGCTATC, CTAAGTGA is lower in “PBM E-score” value: -0.0219 for the first, -0.0814 for the second.

First: CAGTTACG
Second: TCCAGAAA
The “PBM E-score” value of the first is lower: -0.17 for the first, -0.11 for the second.

First: ACATTGAG
Second: GACTTAGA
The “PBM E-score” value of the first is higher: -0.113 for the first, -0.333 for the second.

Going from TTACATAA to CACCCTTC, the “PBM E-score” value rises from -0.103 to -0.0444.
